{"source": "patent US20250346864A1", "about": "“MODULATION OF SATELLITE CELL POLARITY AND ASYMMETRIC CELL DIVISION” (Ottawa Hospital Research Institute, priority 2022, published 2025)", "key": {"[1]": {"tested_on": "C57BL/10ScSn-Dmd^mdx/J (mdx) mouse model of Duchenne muscular dystrophy", "assay": "In vivo dose amounts in mdx mice, TA muscle strength"}, "[2]": {"tested_on": "C57BL/10ScSn-Dmd^mdx/J (mdx) mouse model of Duchenne muscular dystrophy", "assay": "In vivo dosage regimens in mdx mice, TA histology and single cell assay", "conditions": "for average Feret diameter / distribution of minimum myofiber Feret / total TA muscle fiber area: vs vehicle"}, "[3]": {"conditions": "1 mg/kg vs 0.1 and 0.3 mg/kg, dose-dependent effect"}, "[4]": {"conditions": "0.1, 0.3 or 1 mg/kg IP days 0, 3, 7, 10, right TA tested day 17"}}}
{"molecule": "CC(C)C[C@](C)(N)COc1ccc(-c2ccnc(C(F)F)c2)nc1C(F)F", "note": "[LX9211, (S)-1-((2′,6-bis(difluoromethyl)-[2,4′-bipyridin]-5-yl)oxy)-2,4-dimethylpentan-2-amine]", "values": [{"measurement": "Max Tetanic Force, 1 mg/kg compared with lower doses", "setting": "[1]; [3]", "value": "larger increase"}, {"measurement": "Specific Force, 1 mg/kg compared with lower doses", "setting": "[1]; [3]", "value": "larger increase"}, {"measurement": "Twitch Force, 1 mg/kg compared with lower doses", "setting": "[1]; [3]", "value": "larger increase"}, {"measurement": "Max Tetanic Force (nM) normalized to controls", "setting": "[1]; [4]", "value": "significant increase"}, {"measurement": "Specific Force (mN/mm2) normalized to controls", "setting": "[1]; [4]", "value": "significant increase"}, {"measurement": "Twitch Force (mN) normalized to controls", "setting": "[1]; [4]", "value": "significant increase"}, {"measurement": "average Feret diameter", "setting": "[2]; dosage regimen 1 (2×)", "value": "Neither dosage regimen 1 or 3 significantly increased"}, {"measurement": "distribution of minimum myofiber Feret", "setting": "[2]; dosage regimen 1 (2×)", "value": "nor did they significantly shift"}, {"measurement": "total TA muscle fiber area", "setting": "[2]; dosage regimen 1 (2×)", "value": "Neither dosage regimen 1 or 3 significantly increased"}, {"measurement": "number of Pax7+ cells", "setting": "[2]; dosage regimen 1 (2×): 1 mg/kg IP day 0 and 3", "value": "increased"}, {"measurement": "average Feret diameter", "setting": "[2]; dosage regimen 2 (4×)", "value": "increased"}, {"measurement": "distribution of minimum myofiber Feret", "setting": "[2]; dosage regimen 2 (4×)", "value": "significant shift"}, {"measurement": "total TA muscle fiber area", "setting": "[2]; dosage regimen 2 (4×)", "value": "increased"}, {"measurement": "average Feret diameter", "setting": "[2]; dosage regimen 3 (7×)", "value": "Neither dosage regimen 1 or 3 significantly increased"}, {"measurement": "distribution of minimum myofiber Feret", "setting": "[2]; dosage regimen 3 (7×)", "value": "nor did they significantly shift"}, {"measurement": "total TA muscle fiber area", "setting": "[2]; dosage regimen 3 (7×)", "value": "Neither dosage regimen 1 or 3 significantly increased"}, {"measurement": "muscle mass (TA area)", "setting": "[2]; dosage regimen 3 (7×): 1 mg/kg IP day 0, 3, 5, 7, 10, 12, 14, 17", "value": "Neither dosage regimen 1 (“2×”) or dosage regimen 3 (“7×”) significantly increased"}]}
